Measurements from the supplement of paper PMC4967469.
pIC50: −log10 of the molar value. A lower IC50 marks a more sensitive line; fits outside the tested doses are given as limits. AUC sums up the same curve from the lowest dose to the 256-fold higher top dose; the more sensitive the line, the further below 1. The top dose, if marked as inferred, comes from the curve model; the source does not state it.

Compound: COc1ncc(-c2ccc3nccc(-c4ccnnc4)c3c2)cc1NS(=O)(=O)c1ccc(F)cc1F [GSK2126458]
Test: Viability of human cancer cell lines after 72 h of drug (GDSC screen)
Settings: top dose inferred
Experimental: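 Human cancer cell lines in 384-well plates, medium with 10% serum, drug for 72 h over a 256-fold dose range (nine 2-fold or five 4-fold steps up to the top dose). Adherent lines were fixed and stained with the nucleic acid dye Syto60, suspension lines read with resazurin; signal relative to control wells, capped at 0 and 100%. One two-parameter sigmoid per drug and line, fitted in a mixed model over all curves with the slope shared within a line.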

Row | Cell Line | AUC | pIC50
1 | EB2 (Burkitt lymphoma, suspension, top dose 0.128 µM) | 0.189 | 8.97
2 | EB-3 (Burkitt lymphoma, suspension, top dose 0.128 µM) | 0.504 | 8.08
3 | EBC-1 (lung squamous cell carcinoma, adherent, top dose 0.128 µM) | 0.736 | 7.38
4 | EC-GI-10 (oesophagus, adherent, top dose 0.128 µM) | 0.988 | < 6.89
5 | ECC10 (stomach, suspension, top dose 0.128 µM) | 0.871 | < 6.89
6 | EFM-19 (breast, adherent, top dose 0.128 µM) | 0.702 | 7.40
7 | EFM-192A (breast, adherent, top dose 0.128 µM) | 0.899 | < 6.89
8 | EFO-21 (ovary, adherent, top dose 0.128 µM) | 0.697 | 7.44
9 | EFO-27 (ovary, adherent, top dose 0.128 µM) | 0.714 | 7.42
10 | EGI-1 (biliary tract, adherent, top dose 0.128 µM) | 0.618 | 7.73
11 | EJM (lymphoid neoplasm, semi-adherent, top dose 0.128 µM) | 0.62 | 7.79
12 | EKVX (lung adenocarcinoma, adherent, top dose 1.024 µM) | 0.666 | 6.50
13 | EM-2 (chronic myeloid leukaemia, suspension, top dose 0.128 µM) | 0.742 | 7.36
14 | EMC-BAC-1 (lung adenocarcinoma, adherent, top dose 0.128 µM) | 0.789 | 7.19
15 | EMC-BAC-2 (lung adenocarcinoma, adherent, top dose 0.128 µM) | 0.71 | 7.45
16 | EN (endometrium, adherent, top dose 0.128 µM) | 0.745 | 7.30
17 | EPLC-272H (lung squamous cell carcinoma, adherent, top dose 0.128 µM) | 0.47 | 8.18
18 | ES1 (Ewing sarcoma, adherent, top dose 0.128 µM) | 0.287 | 8.69
19 | ES3 (Ewing sarcoma, adherent, top dose 0.128 µM) | 0.542 | 7.98
20 | ES4 (Ewing sarcoma, adherent, top dose 0.128 µM) | 0.482 | 8.15
21 | ES5 (Ewing sarcoma, adherent, top dose 0.128 µM) | 0.197 | 9.07
22 | ES6 (Ewing sarcoma, adherent, top dose 0.128 µM) | 0.699 | 7.47
23 | ES7 (Ewing sarcoma, adherent, top dose 0.128 µM) | 0.374 | 8.45
24 | ES8 (Ewing sarcoma, adherent, top dose 0.128 µM) | 0.425 | 8.29
25 | ES-2 (ovary, adherent, top dose 0.128 µM) | 0.93 | < 6.89
26 | ESO26 (oesophagus, adherent, top dose 0.128 µM) | 0.699 | 7.55
27 | ESO51 (oesophagus, semi-adherent, top dose 0.128 µM) | 0.651 | 7.60

Row | Cell Line | AUC | pIC50
28 | ESS-1 (endometrium, adherent, top dose 0.128 µM) | 0.891 | 6.91
29 | ETK-1 (biliary tract, adherent, top dose 0.128 µM) | 0.694 | 7.52
30 | EVSA-T (breast, adherent, top dose 0.128 µM) | 0.637 | 7.74
31 | EW-1 (Ewing sarcoma, semi-adherent, top dose 0.128 µM) | 0.206 | 8.92
32 | EW-3 (Ewing sarcoma, adherent, top dose 0.128 µM) | 0.612 | 7.77
33 | EW-7 (Ewing sarcoma, semi-adherent, top dose 0.128 µM) | 0.371 | 8.43
34 | EW-11 (Ewing sarcoma, adherent, top dose 0.128 µM) | 0.323 | 8.66
35 | EW-13 (Ewing sarcoma, suspension, top dose 0.128 µM) | 0.615 | 7.76
36 | EW-16 (Ewing sarcoma, adherent, top dose 0.128 µM) | 0.456 | 8.22
37 | EW-18 (Ewing sarcoma, suspension, top dose 0.128 µM) | 0.278 | 8.75
38 | EW-24 (Ewing sarcoma, semi-adherent, top dose 0.128 µM) | 0.993 | < 6.89
39 | EoL-1-cell (haematopoietic neoplasm, suspension, top dose 0.128 µM) | 0.887 | 6.95
40 | FADU (head and neck, adherent, top dose 0.128 µM) | 0.903 | < 6.89
41 | FLO-1 (oesophagus, adherent, top dose 0.128 µM) | 0.775 | 7.12
42 | FTC-133 (thyroid, adherent, top dose 0.128 µM) | 0.934 | < 6.89
43 | FU97 (stomach, adherent, top dose 0.128 µM) | 0.825 | 7.10
44 | FU-OV-1 (ovary, adherent, top dose 0.128 µM) | 0.425 | 8.33
45 | Farage (B-cell lymphoma, suspension, top dose 0.128 µM) | 0.32 | 8.55
46 | G-292 Clone A141B1 (osteosarcoma, adherent, top dose 0.128 µM) | 0.495 | 8.12
47 | G-361 (melanoma, adherent, top dose 0.128 µM) | 0.642 | 7.71
48 | G-401 (kidney, adherent, top dose 0.128 µM) | 0.629 | 7.72
49 | G-402 (soft tissue, adherent, top dose 0.128 µM) | 0.71 | 7.41
50 | G-MEL (melanoma, adherent, top dose 0.128 µM) | 0.61 | 7.80
51 | GAK (melanoma, adherent, top dose 0.128 µM) | 0.897 | < 6.89
52 | GAMG (glioma, adherent, top dose 0.128 µM) | 0.53 | 8.01
53 | GB-1 (glioma, adherent, top dose 0.128 µM) | 0.644 | 7.67
54 | GCIY (stomach, adherent, top dose 0.128 µM) | 0.404 | 8.38

Row | Cell Line | AUC | pIC50
55 | GCT (soft tissue, adherent, top dose 0.128 µM) | 0.989 | < 6.89
56 | GDM-1 (acute myeloid leukaemia, suspension, top dose 0.128 µM) | 0.097 | > 9.30
57 | GI-1 (glioma, adherent, top dose 0.128 µM) | 0.503 | 8.09
58 | GI-ME-N (neuroblastoma, adherent, top dose 0.128 µM) | 0.766 | 7.19
59 | GMS-10 (glioma, adherent, top dose 0.128 µM) | 0.96 | < 6.89
60 | GOTO (neuroblastoma, adherent, top dose 0.128 µM) | 0.909 | < 6.89
61 | GP5d (large intestine, adherent, top dose 0.128 µM) | 0.799 | 7.27
62 | GR-ST (lymphoblastic leukaemia, suspension, top dose 0.128 µM) | 0.421 | 8.33
63 | GRANTA-519 (B-cell lymphoma, suspension, top dose 0.128 µM) | 0.638 | 7.74
64 | GT3TKB (stomach, adherent, top dose 0.128 µM) | 0.981 | < 6.89
65 | H4 (glioma, adherent, top dose 0.128 µM) | 0.774 | 7.31
66 | H9 (lymphoid neoplasm, suspension, top dose 0.128 µM) | 0.992 | < 6.89
67 | H290 (mesothelioma, adherent, top dose 0.128 µM) | 0.964 | < 6.89
68 | H513 (mesothelioma, semi-adherent, top dose 0.128 µM) | 0.912 | < 6.89
69 | H2369 (mesothelioma, adherent, top dose 0.128 µM) | 0.957 | < 6.89
70 | H2373 (mesothelioma, adherent, top dose 0.128 µM) | 0.866 | < 6.89
71 | H2461 (mesothelioma, adherent, top dose 0.128 µM) | 0.952 | < 6.89
72 | H2591 (mesothelioma, adherent, top dose 0.128 µM) | 0.897 | < 6.89
73 | H2595 (mesothelioma, adherent, top dose 0.128 µM) | 0.904 | < 6.89
74 | H2722 (mesothelioma, adherent, top dose 0.128 µM) | 0.937 | < 6.89
75 | H2731 (mesothelioma, adherent, top dose 0.128 µM) | 0.793 | 7.17
76 | H2795 (mesothelioma, adherent, top dose 0.128 µM) | 0.889 | < 6.89
77 | H2803 (mesothelioma, adherent, top dose 0.128 µM) | 0.938 | < 6.89
78 | H2804 (mesothelioma, adherent, top dose 0.128 µM) | 0.813 | 7.11
79 | H2818 (mesothelioma, adherent, top dose 0.128 µM) | 0.972 | < 6.89
80 | H2869 (mesothelioma, adherent, top dose 0.128 µM) | 0.691 | 7.50
